In all, about 110,000 compounds were measured (“z-score”: median about -0.1, highest 2% from about 2 on). Some of the results follow. Active and inactive are the calls of the source.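 Rule for the calls: active = z-score in the third read window above 3 or below -3; inactive = the rest.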
target: Metabotropic glutamate receptor 8 (Rattus norvegicus) (UniProt P70579); experiment: mGluR8 Gi/Go-coupled signaling modulation – cell-based, rat, thallium flux, HTS, primary screen (AID 488969); details: HEK293 rat mGluR8, GIRK (G protein-gated inwardly rectifying potassium channel) thallium flux, FluoZin2; at 10 µM; stronger effect = higher value; submaximal glutamate (EC20) added with thallium
UniProt P70579, sequence (P70579 whole entry, looked up): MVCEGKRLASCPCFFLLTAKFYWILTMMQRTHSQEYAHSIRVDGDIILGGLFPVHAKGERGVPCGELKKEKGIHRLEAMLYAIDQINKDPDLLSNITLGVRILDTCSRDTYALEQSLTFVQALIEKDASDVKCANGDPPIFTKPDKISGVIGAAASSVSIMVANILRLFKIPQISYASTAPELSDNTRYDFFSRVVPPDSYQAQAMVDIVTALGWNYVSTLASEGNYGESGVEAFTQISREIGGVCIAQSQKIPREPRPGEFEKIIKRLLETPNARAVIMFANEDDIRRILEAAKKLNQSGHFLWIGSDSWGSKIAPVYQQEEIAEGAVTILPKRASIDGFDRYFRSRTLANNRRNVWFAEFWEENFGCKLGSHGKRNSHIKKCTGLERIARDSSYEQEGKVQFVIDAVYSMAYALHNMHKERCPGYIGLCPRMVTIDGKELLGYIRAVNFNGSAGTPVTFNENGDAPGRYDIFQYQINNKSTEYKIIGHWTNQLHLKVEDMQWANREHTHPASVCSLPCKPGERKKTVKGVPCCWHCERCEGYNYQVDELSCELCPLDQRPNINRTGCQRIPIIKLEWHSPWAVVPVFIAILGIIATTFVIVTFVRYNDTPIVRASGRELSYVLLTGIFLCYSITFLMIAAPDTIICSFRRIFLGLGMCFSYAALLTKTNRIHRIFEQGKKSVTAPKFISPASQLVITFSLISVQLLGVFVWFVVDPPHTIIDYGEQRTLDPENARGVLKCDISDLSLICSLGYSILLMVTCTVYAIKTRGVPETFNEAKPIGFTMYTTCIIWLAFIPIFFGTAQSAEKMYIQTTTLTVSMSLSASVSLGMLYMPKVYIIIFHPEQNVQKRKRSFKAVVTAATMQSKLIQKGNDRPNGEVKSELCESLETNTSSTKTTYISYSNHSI

**Q.** `FC(F)(F)c1cc(C(F)(F)F)c2ccc(N/N=C/c3ccccc3)nc2n1` was tested. Which z-score did it give?
**A.** Its z-score is 0.736.

**Q.** How did the z-score turn out when `CCN(CC)CCCNC(=S)N1CCn2c(nc3ccccc32)C1` was run?
**A.** Its z-score is -0.203.

**Q.** For `COc1ccc(S(=O)(=O)N2c3cc(Cl)ccc3Oc3nc4ccccc4nc32)cc1`, which z-score is on record?
**A.** The z-score was -0.314.

**Q.** For `CC(C)(C)c1ccc(O)c(N)c1`, which z-score is on record?
**A.** Its z-score is -0.743.

**Q.** Which z-score does the source give for `CC(C)(CNS(=O)(=O)c1ccc(F)cc1)CNS(=O)(=O)c1ccc(F)cc1` here?
**A.** Its z-score is 0.051.

**Q.** For `CCOC(=O)c1c(C)[nH]c(C)c1C(=O)CSc1nc2ccccc2n1CCOC`, which z-score is on record?
**A.** Its z-score is -0.301.

**Q.** How did the z-score turn out when `COC(=O)C(NC(=O)C(C)Oc1ccccc1)C(C)C` (stereo not given) was run?
**A.** Its z-score is 0.876.

**Q.** With `O=C(C1CC(=O)N(c2ccccc2)C1)N1CCN(C2=NS(=O)(=O)c3ccccc32)CC1` (stereo not given) as the compound, how does the z-score read?
**A.** The z-score was 0.289.

**Q.** `COc1ccccc1NS(=O)(=O)c1cc(NC(=O)CNC(=O)c2ccc(C)s2)ccc1Cl` was tested. Which z-score did it give?
**A.** Its z-score is -0.021.

**Q.** For `CCOC(=O)CC1C(=O)NCCN1S(=O)(=O)c1ccc(Cl)cc1` (stereo not given), which z-score is on record?
**A.** Its z-score is 0.124.

**Q.** With `O=c1[nH]c(CN2CCCCC2)nc2c1C1(CCCCC1)Cc1ccccc1-2` as the compound, how does the z-score read?
**A.** Its z-score is 0.662.

**Q.** With `O=c1[nH]c2cc3c(cc2cc1C(c1nnnn1CC1CCCO1)N1CCCCCC1)OCO3` (stereo not given) as the compound, how does the z-score read?
**A.** The z-score was -0.476.

**Q.** For `COc1ccc(NC(=O)c2cc3ccccn3n2)cc1`, which z-score is on record?
**A.** The z-score was -0.0979.

**Q.** With `COCC(=O)Nc1ccc(S(=O)(=O)NCCc2ccccc2)cc1` as the compound, how does the z-score read?
**A.** The z-score was 0.711.

**Q.** With `Cc1ccc2nc(C)c(C(=O)N/N=C/c3cccc([N+](=O)[O-])c3)cc2c1` as the compound, how does the z-score read?
**A.** The z-score was -0.517.

**Q.** `CC(=O)Nc1cccc(C(=O)Nc2ccccc2C(=O)O)c1` was tested. Which z-score did it give?
**A.** The z-score was -0.0865.

**Q.** With `COc1ccc(NC(=O)C2CCCO2)cc1OC` (stereo not given) as the compound, how does the z-score read?
**A.** Its z-score is 0.126.

**Q.** For `COc1ccc(/C=N/NC(=S)NC2CCS(=O)(=O)C2)cc1` (stereo not given), which z-score is on record?
**A.** The z-score was -0.113.

**Q.** With `OC(COC(c1ccc(Cl)cc1)c1ccc(Cl)cc1)CN1CCCC1` (stereo not given) as the compound, how does the z-score read?
**A.** Its z-score is -0.0693.

**Q.** Which z-score does the source give for `Cc1ccc(NC(=O)c2ccc(-n3cccn3)c([N+](=O)[O-])c2)cc1` here?
**A.** The z-score was -0.356.

**Q.** Which z-score does the source give for `O=C(Nc1ccc(Cl)cc1C(F)(F)F)c1ccccc1Cl` here?
**A.** Its z-score is -0.22.

**Q.** For `Cc1ccc(C(=O)CNc2ccccc2C)cc1`, which z-score is on record?
**A.** The z-score was -0.166.

**Q.** For `CN(C(=O)CSc1nc(N)c2c3c(sc2n1)CSC(C)(C)C3)c1ccccc1`, which z-score is on record?
**A.** Its z-score is -0.67.

**Q.** How did the z-score turn out when `Cc1ccc(-n2nnnc2SCC(=O)Nc2ncc(Cc3ccccc3Cl)s2)cc1` was run?
**A.** Its z-score is -0.0274.

**Q.** How did the z-score turn out when `COc1ccc2nc(NC(=O)c3ccoc3C)sc2c1` was run?
**A.** The z-score was 0.209.

**Q.** For `Cc1cc2c(C)nc(N/N=C/c3ccc(F)cc3)nc2o1`, which z-score is on record?
**A.** The z-score was -0.0517.

**Q.** Which z-score does the source give for `Cc1c(Cl)cccc1Nc1nc(N)nc(CSc2nc3ccccc3s2)n1` here?
**A.** The z-score was 0.566.

**Q.** Which z-score does the source give for `CN(C)CCN1C(=O)c2oc3ccccc3c(=O)c2C1c1cccc(Br)c1` (stereo not given) here?
**A.** Its z-score is 0.553.

**Q.** Which z-score does the source give for `C=CCn1cnc2scc(-c3ccc(CC)cc3)c2c1=O` here?
**A.** The z-score was -0.474.

**Q.** `CCNC(=O)CCCOc1ccc(Cl)cc1Cl` was tested. Which z-score did it give?
**A.** Its z-score is -0.106.

**Q.** With `CCc1ccc(CNc2ccc(O)cc2)cc1` as the compound, how does the z-score read?
**A.** The z-score was 0.141.

**Q.** With `Cc1cccc(CSc2nn3c(=O)c(C)nnc3s2)c1` as the compound, how does the z-score read?
**A.** The z-score was 0.481.

**Q.** For `CCCn1c(SCC(=O)NC(=O)NCc2ccco2)n[nH]c1=O`, which z-score is on record?
**A.** The z-score was -0.027.

**Q.** `O=C(CCC(=O)OCC(=O)c1cccc([N+](=O)[O-])c1)Nc1cccc(Cl)c1Cl` was tested. Which z-score did it give?
**A.** The z-score was -0.0921.

**Q.** With `S=c1[nH]nc(CSCc2ccc(Cl)cc2Cl)n1-c1ccccc1` as the compound, how does the z-score read?
**A.** Its z-score is active: 15.5.

**Q.** How did the z-score turn out when `COc1ccccc1NC(=O)C(NC(=O)OC(C)(C)C)C(C)OCc1ccccc1` (stereo not given) was run?
**A.** The z-score was -0.319.

**Q.** Which z-score does the source give for `COC(=O)C(F)(F)Sc1c(C)[nH]c2ccccc12` here?
**A.** Its z-score is 0.171.

**Q.** For `Cc1ccc(C(=O)CSc2nc(C)cc(SCc3nnc(-c4ccccc4)o3)n2)cc1`, which z-score is on record?
**A.** The z-score was 0.0159.

**Q.** Which z-score does the source give for `CCCCCC(=O)Nc1ccc2oc(-c3cncc(Br)c3)nc2c1` here?
**A.** Its z-score is 0.45.

**Q.** With `CN=C1SC(CC(=O)Nc2c(C)cccc2C)C(=O)N1/N=C/c1cccs1` (stereo not given) as the compound, how does the z-score read?
**A.** The z-score was -0.202.

**Q.** How did the z-score turn out when `Cc1cc(N(C)C)cc(C)[n+]1[O-]` was run?
**A.** Its z-score is -0.124.

**Q.** Which z-score does the source give for `O=C(Nc1ccccc1)c1ccc[n+](Cc2ccc([N+](=O)[O-])cc2)c1` here?
**A.** The z-score was 0.521.

**Q.** Which z-score does the source give for `COC(=O)c1cc(N2C(=O)C3C(C2=O)C2(C)C=CC3(C)O2)ccc1Cl` (stereo not given) here?
**A.** Its z-score is -0.393.

**Q.** `CCN(CC)S(=O)(=O)c1ccc2c(c1)c(=O)c(C(=O)NCCOC)cn2C` was tested. Which z-score did it give?
**A.** The z-score was -0.267.

**Q.** With `OCCCc1nc2ccccc2n1CCc1ccccc1` as the compound, how does the z-score read?
**A.** Its z-score is -0.263.

**Q.** With `CCCCN(CC)S(=O)(=O)c1ccc(C(=O)Nc2nnc(COC)o2)cc1` as the compound, how does the z-score read?
**A.** The z-score was -0.35.

**Q.** For `COc1cc2c(cc1OC)CN(C(=O)CSc1nc(C)cc(C)c1C#N)CC2`, which z-score is on record?
**A.** Its z-score is -1.3.

**Q.** How did the z-score turn out when `Cc1cc(-c2cccnc2)c(C#N)c(SCC#N)n1` was run?
**A.** The z-score was 0.00995.

**Q.** `COC(=O)c1ccc(NC(=O)CSc2nncc3ccc(OC)c(OC)c23)cc1` was tested. Which z-score did it give?
**A.** The z-score was -0.0993.

**Q.** How did the z-score turn out when `Cc1noc(NS(=O)(=O)c2ccc(NC(=O)CS(=O)(=O)c3ccccc3)cc2)c1C` was run?
**A.** Its z-score is 0.155.

**Q.** For `Cc1onc(-c2c(F)cccc2Cl)c1C(=O)Nc1c(C)n(C)n(-c2ccccc2)c1=O`, which z-score is on record?
**A.** The z-score was -0.4.

**Q.** For `O=[N+]([O-])c1ccc(Oc2ccc(S(=O)(=O)Nc3ccccc3)cc2)cc1`, which z-score is on record?
**A.** Its z-score is -0.248.

**Q.** Which z-score does the source give for `O=C(NCc1ccccn1)c1cccc([N+](=O)[O-])c1` here?
**A.** The z-score was -0.0692.

**Q.** `C/C=C/c1ccc(OCCOc2cc(C=O)ccc2OC)c(OC)c1` was tested. Which z-score did it give?
**A.** Its z-score is -0.21.

**Q.** How did the z-score turn out when `CCOc1ccc(-n2c(SCC(=O)NCc3ccco3)nc3c([nH]c4ccccc43)c2=O)cc1` was run?
**A.** The z-score was -0.288.

**Q.** Which z-score does the source give for `CCCCC(=O)Nc1ccc(C(=O)Nc2nnc(COC)s2)cc1` here?
**A.** The z-score was -0.311.

**Q.** For `C=CCC(=O)OCC(=O)Nc1ccc(Oc2ccccc2)cc1`, which z-score is on record?
**A.** Its z-score is 0.194.

**Q.** `CC1CCC2(CC1)NC(=O)c1ccccc1O2` (stereo not given) was tested. Which z-score did it give?
**A.** The z-score was 0.35.

**Q.** Which z-score does the source give for `COc1ccc(CC(=O)O/N=C(\N)Cc2ccc(OC)cc2)cc1` here?
**A.** Its z-score is -0.197.

**Q.** With `Fc1ccc(CSc2ccc(-c3ccc4c(c3)OCO4)nn2)cc1` as the compound, how does the z-score read?
**A.** The z-score was -0.368.

**Q.** For `CC(=O)N1CCc2cc(S(=O)(=O)NCCC(=O)Nc3cc(C)cc(C)c3)ccc21`, which z-score is on record?
**A.** The z-score was -0.151.

**Q.** How did the z-score turn out when `Nc1c(C(=O)NCc2ccc3c(c2)OCO3)c2nc3ccccc3nc2n1CCCN1CCOCC1` was run?
**A.** The z-score was -0.129.

**Q.** How did the z-score turn out when `O=C(c1ccc(S(=O)(=O)NCC2CCCO2)cc1)N1CCc2ccccc21` (stereo not given) was run?
**A.** Its z-score is -0.235.

**Q.** Which z-score does the source give for `CCCN1CCN(C(c2cc3cc(OCC)ccc3[nH]c2=O)c2nnnn2C2CCCCC2)CC1` (stereo not given) here?
**A.** Its z-score is 1.03.

**Q.** With `CCOC(=O)c1c(/N=C/C2C(=O)CC(C)(C)CC2=O)sc(C)c1C` as the compound, how does the z-score read?
**A.** Its z-score is -0.243.

**Q.** Which z-score does the source give for `COc1ccc(C2c3c(oc4ccccc4c3=O)C(=O)N2Cc2ccncc2)cc1OC` (stereo not given) here?
**A.** Its z-score is -0.203.

**Q.** How did the z-score turn out when `CCN(CC)CCCNC(=O)c1cc(-c2ccc(O)cc2)on1` was run?
**A.** Its z-score is 0.686.

**Q.** How did the z-score turn out when `C=C(C)CSc1nc(N)c(C#N)c(-c2ccc(C)cc2)c1C#N` was run?
**A.** The z-score was -0.338.

**Q.** For `COC(=O)c1c(NC(=O)CSc2nnc(CNc3ccc(Cl)cc3)o2)sc(C)c1C`, which z-score is on record?
**A.** The z-score was 0.279.

**Q.** `CCCNC(=O)c1ccc(OC)cc1OC` was tested. Which z-score did it give?
**A.** Its z-score is -0.218.

— PubChem BioAssay AID488969 (Vanderbilt High Throughput Screening Facility, 2010)
